Experimental data as given in PubChem BioAssay AID1476 (National Center for Advancing Translational Sciences (NCATS), 2009).
Several values for one entry are separate records, joined by “and”; a condition that tells them apart may be missing. Equal values may be shown once. Hit rate of the full screen: of about 200,000 compounds, about 4,500 (2.2%) were called active. This list was built around the results that the source calls inconclusive (neither active nor inactive); the mix of calls is not that of the screen. The call rests on the fitted dose curve; in most records, active means well fitted inhibition curve with a large enough effect; inconclusive means small, poorly fitted or top-dose-only effect, or effect the other way; inactive means flat fitted curve, though single readings scatter. A potency beside an inconclusive call is a rough fit, not a confirmed value. The source holds several records for some structures; these can differ, active in one and inactive in another.
Further: nearly all actives have a fitted effect of over 40% in size.
Potency means the concentration at half of the fitted maximal effect; tags describe the fitted curve by direction and shape.
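Wherever max response, negative = inhibition is given: plate controls were enzyme without inhibitor for no effect and buffer without enzyme for full effect.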

These molecules were tested against Cruzipain (Trypanosoma cruzi) (UniProt P25779) (assay: qHTS Assay for Promiscuous and Specific Inhibitors of Cruzain (without detergent)). Conditions: purified cruzain, Z-FR-AMC fluorescence, no detergent.
Chain of UniProt P25779 (P25779 whole entry, looked up): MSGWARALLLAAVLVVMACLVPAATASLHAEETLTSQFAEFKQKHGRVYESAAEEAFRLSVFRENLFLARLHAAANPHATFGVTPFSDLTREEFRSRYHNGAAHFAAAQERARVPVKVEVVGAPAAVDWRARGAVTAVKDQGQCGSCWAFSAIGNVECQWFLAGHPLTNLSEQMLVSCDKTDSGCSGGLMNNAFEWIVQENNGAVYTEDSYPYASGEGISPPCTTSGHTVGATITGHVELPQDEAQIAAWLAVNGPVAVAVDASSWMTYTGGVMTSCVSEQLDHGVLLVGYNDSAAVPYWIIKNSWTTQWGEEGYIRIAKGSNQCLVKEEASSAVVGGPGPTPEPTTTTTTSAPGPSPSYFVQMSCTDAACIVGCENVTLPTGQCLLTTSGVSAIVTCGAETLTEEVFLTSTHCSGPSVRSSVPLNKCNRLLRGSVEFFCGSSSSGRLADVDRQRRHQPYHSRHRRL
In short: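 Purified cruzain at 1.5 nM, pre-incubated 15 min with compound at room temperature in 100 mM sodium acetate pH 5.5, 5 mM DTT, 0.00005% Triton X-100. Reaction started with 2 uM Z-FR-AMC; AMC fluorescence increase over 60 s gives rate.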
In the case of `Cc1ccc(C(=O)O/N=C(\N)c2ccc(Br)cc2)cc1C`, the Potency is reported as inconclusive: 31.6 µM [inhibitor, single point]. `CC(C)=CCCC1(C)C=Cc2c(O)c3c(c(CC=C(C)C)c2O1)OC12C(=CCCC1C(C)(C)O[C@@]2(C/C=C(\C)C(=O)O)C(=O)O)C3=O` (stereo partly drawn) was tested, and the Potency was inconclusive: 25.1 µM [activator, partial curve]. For `COC(=O)c1sc(NC(=O)c2oc3ccccc3c2C)nc1C`, the Potency was inconclusive: 39.8 µM [activator, single point]. In the case of `CCCCCCOc1ccc(N2C(=O)CC(N3CCN(C(=O)c4ccco4)CC3)C2=O)cc1` (stereo not drawn), the Potency is reported as inconclusive: 25.1 µM [activator, single point]. In the case of `CC(C)C[C@@H](CC(=O)N[C@H](CC(=O)N[C@@H]1CCCC[C@H]1C(=O)N[C@H](CC(=O)N[C@@H](CCC(=O)O)CC(=O)O)Cc1ccccc1)C(C)C)NC(=O)[C@@H]1CCCC[C@H]1N`, the Potency is reported as inconclusive: 15.8 µM [activator, partial curve]. With `Cc1ccc(-n2nnc(-c3nsc(NC(=O)c4cccc(Cl)c4)n3)c2C)cc1C` the Potency was inconclusive: 25.1 µM [inhibitor, single point]. With `O=C(CSc1n[nH]c(-c2ccccc2)n1)NCCCc1ccccc1` the max response, negative = inhibition was inactive: -2.58%. In the case of `Cc1cccc(NC(=O)c2cc(-c3ccc(C)s3)nc3ccccc23)n1`, the Potency is reported as active: 20 µM. With `Cc1ccc(-c2nc3cccnc3s2)cc1NS(=O)(=O)c1ccc2c(c1)OCCO2` the Potency was inconclusive: 31.6 µM [inhibitor, single point]. For `Cc1nnc(N2CCCC(C(=O)NCc3ccccc3F)C2)c2nn(-c3ccc(Cl)cc3)c(C)c12` (stereo not drawn), the max response, negative = inhibition was inactive: 7.73%. `CC(=O)N1CCN(S(=O)(=O)c2cccc(C(=O)Nc3nc4c(s3)CCCC4)c2)CC1` was tested, and the Potency was inconclusive: 31.6 µM [activator, single point]. In the case of `COc1cc(/C=C2\SC(=S)N(N3CCOCC3)C2=O)cc(OC)c1OC`, the Potency is reported as inconclusive: 39.8 µM [activator, single point]. `Cn1c(N=NC(=O)c2ccccc2)c(O)c2ccccc21` was tested, and the Potency was inconclusive: 39.8 µM [activator, single point]. In the case of `CCN(CC)S(=O)(=O)c1ccc2c(c1)nc(CCC(=O)Nc1cccc(C(F)(F)F)c1)n2CC`, the Potency is reported as inconclusive: 20 µM [activator, partial curve]. `COc1ccc(CNC(=O)CN2N=C(c3ccccc3)CCC2=O)c(OC)c1` was tested, and the max response, negative = inhibition was inactive: 3.32%. `CC(C)c1ccc(C2N3CC4([N+](=O)[O-])CN2CC([N+](=O)[O-])(C3)C4(C)C)cc1` (stereo not drawn) was tested, and the Potency was active: 10 µM. In the case of `COc1ccc(Cl)cc1NC(=O)Cn1c(=O)n2nc(C)nc2c2ccccc21`, the Potency is reported as inconclusive: 39.8 µM [activator, single point]. In the case of `CCCc1c(OCCCOc2ccc(OCC(=O)O)cc2)ccc(CC=O)c1O`, the Potency is reported as inconclusive: 15.8 µM [activator, single point]. In the case of `COc1ccc(N2CCN(C(=O)CN3C(=O)CSc4c3c(C)nn4-c3ccccc3)CC2)cc1`, the max response, negative = inhibition is reported as inactive: 9.85%. For `Cc1[nH]n(-c2ncc(-c3ccccc3)s2)c(=O)c1C(c1ccc(Cl)cc1)C(C#N)C#N` (stereo not drawn), the Potency was active: 12.6 µM. With `COc1ccc(/C=C(\C#N)C(=O)Nc2cc(S(=O)(=O)N3CCCCC3)ccc2N2CCCCC2)cc1` the Potency was active: 3.98 µM. `O=C(COc1ccccc1)NC(=S)Nc1ccc2c(c1)Cc1ccccc1-2` was tested, and the Potency was inconclusive: 39.8 µM [inhibitor, single point]. In the case of `COc1cccc(NC(=O)c2oc3ccccc3c2NC(=O)c2ccc3c(c2)OCO3)c1`, the Potency is reported as inconclusive: 31.6 µM [inhibitor, single point]. For `Nc1nc(N)c2nc(-c3ccccc3)c(N)nc2n1`, the Potency was active: 12.6 µM and active: 7.94 µM. `O=C1c2ccccc2C(=O)N1CCCc1nc(-c2ccncc2)no1` was tested, and the Potency was inconclusive: 7.94 µM [activator, single point]. `Cc1[nH]c2ccccc2c1/C=N/Nc1ccc(F)cc1F` was tested, and the Potency was inconclusive: 31.6 µM [inhibitor, single point]. For `CC(C)CCNC(=O)c1ccc2c(c1)N(Cc1cccc(Cl)c1)C(=O)c1ccccc1S2`, the Potency was inconclusive: 39.8 µM [inhibitor, single point]. In the case of `CCCC(=O)n1nc(-c2ccco2)nc1NCc1ccccc1Cl`, the max response, negative = inhibition is reported as inactive: 2.07%. With `CC1CCN(S(=O)(=O)c2ccc3c(c2)C(=NO)c2cc(S(=O)(=O)N4CCC(C)CC4)ccc2-3)CC1` the Potency was inconclusive: 6.31 µM [inhibitor, full curve]. `COc1ccccc1OC(=O)c1ccc(SC)cc1OC` was tested, and the max response, negative = inhibition was inactive: -19.6%. With `CC1=C(C(=O)OCc2ccccc2)C(c2ccccc2)NC(=O)N1CCCCCC(=O)O` (stereo not drawn) the Potency was inconclusive: 39.8 µM [activator, single point]. `COc1ccccc1CNc1ccc(-c2nc(-c3ccco3)no2)cc1[N+](=O)[O-]` was tested, and the Potency was inconclusive: 7.94 µM [activator, full curve, poor fit]. In the case of `Cc1ccc(-n2c(C)cc(/C=N/NC(N)=S)c2C)cc1`, the Potency is reported as inconclusive: 39.8 µM [inhibitor, single point]. With `Cc1c(C(=O)OCC(=O)Nc2ccc3c(c2)OCO3)cccc1[N+](=O)[O-]` the Potency was inconclusive: 25.1 µM [inhibitor, single point]. With `C=CCN1C(=O)/C(=C/c2ccc(O)c(OC)c2)S/C1=N/c1nccs1` the Potency was inconclusive: 39.8 µM [activator, single point]. In the case of `N#Cc1c(Sc2ncc(C(F)(F)F)cc2Cl)nsc1C/C=N\OCc1ccccc1Br`, the Potency is reported as active: 7.94 µM. `C=CC1=C(C)/C(=C/c2[nH]c(Cc3[nH]c(/C=C4\NC(=O)C(C)=C4C=C)c(C)c3CCC(=O)O)c(CCC(=O)O)c2C)NC1=O` was tested, and the Potency was inconclusive: 39.8 µM [activator, single point]. In the case of `Cc1ccc(-n2c(N)c(C(=O)Nc3c(C)n(C)n(-c4ccccc4)c3=O)c3nc4ccccc4nc32)cc1`, the Potency is reported as inconclusive: 20 µM [activator, partial curve]. In the case of `CCOc1ccc(C(=O)c2c(N)c(-c3nc(-c4ccc5c(c4)OCO5)cs3)c3ccccn23)cc1`, the max response, negative = inhibition is reported as inactive: -18.6%. `Cc1ccccc1OCC(=O)NC(=S)Nc1ccc2c3c(cccc13)CC2` was tested, and the Potency was active: 7.94 µM. In the case of `Cc1cc(C)nc(NN2C(=O)/C(=C/c3ccccc3)SC2=S)n1`, the max response, negative = inhibition is reported as inactive: -28.9%. In the case of `Cc1ccc(-n2nc3cc(C)c(NC(=S)NC(=O)/C=C/c4ccco4)cc3n2)cc1`, the Potency is reported as inconclusive: 3.16 µM [inhibitor, full curve]. For `COc1ccccc1[C@H]1C(c2ccc(F)cc2)=NN(c2ccccc2)[C@@H]1CO`, the Potency was active: 31.6 µM. For `CCOC(=O)c1c(-c2ccccc2)csc1NC(=O)c1cc(-c2ccc(F)cc2)on1`, the max response, negative = inhibition was inactive: 3.42%. `Cn1c(-c2ccc(Cl)cc2)cnc1N` was tested, and the Potency was inconclusive: 39.8 µM [inhibitor, single point]. `CCOc1ccc(NC(=O)c2cnc(N3CCCCC3)c3ccccc23)cc1` was tested, and the Potency was inconclusive: 39.8 µM [inhibitor, single point]. With `CCCOc1c(Cl)cc(C(=O)N(Cc2cccc(OC)c2)C2CCS(=O)(=O)C2)cc1Cl` (stereo not drawn) the Potency was inconclusive: 20 µM [activator, partial curve]. In the case of `COCCN1C(=O)C(O)=C(C(=O)c2ccco2)C1c1cccc(Oc2ccccc2)c1` (stereo not drawn), the Potency is reported as inconclusive: 39.8 µM [activator, single point]. `Cc1ccc(S(=O)(=O)NCCN=C(CN2CCOCC2)NS(=O)(=O)c2ccc(C)cc2)cc1` was tested, and the Potency was inconclusive: 25.1 µM [activator, single point]. `COc1cccc(-c2cncnc2NCCc2c[nH]c3ccc(OC)cc23)c1` was tested, and the Potency was inconclusive: 20 µM [activator, single point]. For `CS(=O)(=O)Nc1ccc(Cc2noc(-c3ccc4[nH]cc(CCN)c4c3)n2)cc1`, the Potency was active: 31.6 µM. With `CCCc1ccc(-c2cc(C(=O)NC3=NCCS3)c3ccccc3n2)cc1` the Potency was inconclusive: 39.8 µM [inhibitor, single point]. `Cc1ccc(C(=O)Cn2c3c(sc2=N)CCCC3)cc1` was tested, and the max response, negative = inhibition was inactive: 7.27%. With `CCOc1ccc(OCC)c(NS(=O)(=O)c2c(C(=O)N3CCC(C)CC3)c(C)n(C)c2C)c1` the Potency was inconclusive: 31.6 µM [activator, single point]. With `COc1ccc(NC(=O)CN(c2ccc(C)cc2)S(=O)(=O)c2cccc3nonc23)cc1OC` the Potency was inconclusive: 39.8 µM [activator, single point]. With `CCOc1ccc(NC(=O)CN(c2ccc(Cl)cc2C)S(=O)(=O)c2ccccc2)cc1` the max response, negative = inhibition was inactive: -8.78%. `CCC(Sc1nc2n[nH]c(C)c2c(=N)n1-c1cccc(Cl)c1C)C(=O)N(CC)CC` (stereo not drawn) was tested, and the Potency was inconclusive: 39.8 µM [inhibitor, single point]. For `CCCOc1ccc(Oc2nc(NCC(C)C)nc(N3CCOCC3)n2)nn1`, the max response, negative = inhibition was inactive: 11.9%. In the case of `Cn1cc(C(=O)N2CCN(c3cccc(C(F)(F)F)c3)CC2)c2c3ccccc3n(C)c2c1=O`, the Potency is reported as inconclusive: 20 µM [activator, partial curve]. For `N[C@]1(C(=O)O)CCc2cc(P(=O)(O)O)ccc21`, the max response, negative = inhibition was inactive: -5.7%. In the case of `COc1cc(-c2nnc(SCc3c(F)cccc3Cl)o2)cc(OC)c1OC`, the Potency is reported as inconclusive: 39.8 µM [activator, single point]. With `O=C(Nc1ccc(Cl)c(-c2nc3cc(Cl)ccc3o2)c1)c1cc([N+](=O)[O-])ccc1N1CCOCC1` the max response, negative = inhibition was inactive: -18.2%. With `Cc1cccc(C(=O)Nc2cc(=O)n(C)c(=O)n2C)c1` the max response, negative = inhibition was inactive: 12.6%.
